Measurements taken from PubChem BioAssay AID743279 (National Center for Advancing Translational Sciences (NCATS), 2014).
The whole screen tested about 360,000 compounds, of which about 17,000 (4.7%) were called active. The inconclusive results got no clear call from the source; some entries with a clear call stand among them for comparison. Cut-off read from the data, not from the text of the source: active = activity change below about -50%; inconclusive = mostly about -30% to -49%; inactive = weaker than that.

Test: qHTS for Inhibitors of Inflammasome Signaling: IL-1-beta AlphaLISA Primary Screen
Conditions: THP-1 LPS/ATP IL-1B secretion, 16 h; at 57.5 µM, hits give low values
How it was run: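 Secreted IL-1B measured by AlphaLISA bead assay after 16 h compound exposure of THP-1 cells; compounds (final up to 57.5 uM) added 1 h before LPS (250 ng/mL) and ATP (1.25 mM) stimulation; lower signal means less secretion.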
% is set by controls: 0 for no effect and ±100 for the full control effect.

| Structure (SMILES) | activity change |
| --- | --- |
| CCCc1cc(C(=O)N2CCN(c3ccc(C(F)(F)F)cn3)CC2)sc1C | inconclusive: -49.5% |
| COc1cc(-c2coc3c(C(=O)NCc4ccc(N(C)C)cc4)cccc23)ccc1O | active: -53.1% |
| CC(CCc1ccc(O)cc1)NCCc1ccc(O)c(O)c1 (stereo unspecified) | inconclusive: -36.1% |
| CN(CCCNC(=O)Cn1c(=O)c2cccn2c2ccccc21)Cc1ccccc1 | inconclusive: -42.4% |
| CC(=O)Nc1ccc(NC(=O)C2Cc3c(-c4cccc(F)c4)ccnc3O2)cc1 (stereo unspecified) | inactive: 0% |
| CCCCC1CN2CCc3c([nH]c4ccccc34)C2(C)C1 (stereo unspecified) | inconclusive: -40% |
| CCCS(=O)(=O)NC(=O)C1(C)CCN(C(=O)c2ccc(SC(F)(F)F)cc2)C1 (stereo unspecified) | inactive: 10.8% |
| CN(C)CCCOc1ccc(C(C)(C)c2ccccc2)cc1 | inconclusive: -43.1% |
| CCCCn1c(NCc2ccc(N(C)C)cc2)nc2ccccc21 | inconclusive: -45.6% |
| COC(=O)c1ccc2c(c1)C(C)(C)C(/C=C/c1ccccc1O)=[N+]2C | active: -100% |
| CCOC(=O)NNC(=O)CCn1c2c(c3ccccc31)CCCC2 | inconclusive: -41.7% |
| COCC1CCN(Cc2cn(Cc3ccccc3)nc2-c2cc3ccccc3o2)CC1 | active: -61.5% |
| Cc1nc(-n2[nH]c3c(c2=O)CCCC3)[nH]c(=O)c1Cc1ccccc1 | active: -106% |
| CCOC(=O)c1c(N2C(=O)C3CC(C)=C(C)CC3C2=O)sc(C)c1C (stereo unspecified) | inactive: 4.49% |
| NS(=O)(=O)c1ccc(-c2ccc(/C=C3\SC(=S)N(C4CCS(=O)(=O)C4)C3=O)o2)cc1 (stereo unspecified) | inconclusive: -33.9% |
| Cc1nc(N2CCN(c3ccccn3)CC2)c2c(C)c(C(=O)Nc3c(C)cc(Br)cc3C)sc2n1 | inconclusive: -30.3% |
| O=C1[C@@H]2[C@@H]3C[C@@H]([C@H]4ON=C(c5ccc(Cl)cc5Cl)[C@@H]34)[C@@H]2C(=O)N1C1CCCCC1 | active: -55.4% |
| O=C(NCCC1CCCCN1S(=O)(=O)c1ccccc1)C(=O)NCc1ccccc1F (stereo unspecified) | inconclusive: -35.9% |
| Cc1nc(NC(=O)c2ccccc2)sc1-c1csc(NCc2ccccc2)n1 | inconclusive: -30.5% |
| CCC(C)NCCOCCOc1ccc(Br)cc1 (stereo unspecified) | inconclusive: -45.1% |
| O=C(OCCN1C(=O)c2ccccc2C1=O)[C@@H]1CC(O)CN1S(=O)(=O)c1ccccc1[N+](=O)[O-] (stereo partly specified) | inconclusive: -35.4% |
| N/C(Cc1ccc([N+](=O)[O-])cc1)=N\OC(=O)c1ccccc1Br | inconclusive: -46.9% |

| Structure (SMILES) | activity change |
| --- | --- |
| CCc1nc2c(OCCC3CCCCC3)cccn2c1N(C)C(=O)c1ccc(OC)cc1 | active: -56.5% |
| CCCCn1nnc(NC(=O)c2sc3cc(Cl)ccc3c2Cl)n1 | inconclusive: -34% |
| Cc1ccc(-n2cc(CNC(C)Cn3cncn3)c(-c3ccc(F)cc3)n2)cc1 (stereo unspecified) | inconclusive: -44.9% |
| COc1ccc(CCn2c(C)cc(C(=O)CSc3nnc(N)s3)c2C)cc1 | inactive: -10.4% |
| CCCc1cc(=O)oc2cc(OC(C)C(=O)NCc3ccccn3)c(Cl)cc12 (stereo unspecified) | inconclusive: -32.3% |
| CCc1nc2c(C#N)c(-c3ccc(Cl)cc3)ccn2n1 | inactive: -2.04% |
| CCc1ccc(S(=O)(=O)/N=C2\C=C(Nc3ccc(C(=O)O)cc3)C(=O)c3ccccc32)cc1 | active: -98.8% |
| Cc1ccc(C)c(Cn2nnc3c(=O)[nH]c(C(=O)NCc4ccco4)nc32)c1 | inactive: 32.3% |
| CCOC(=O)c1cnc2ccc(OCC)cc2c1N1CCN(C)CC1 | inconclusive: -42.2% |
| N#CC(C(=O)Nc1ccccc1)=C1CCCCC1 | inconclusive: -42.8% |
| CC1(C)CC(=O)C2=C(C1)Nc1cc3c(cc1C2c1ccc2c(c1)OCO2)OCO3 (stereo unspecified) | inconclusive: -32.7% |
| O=C(/C=C/c1ccc2c(c1)OCO2)c1ccco1 | active: -96.3% |
| Cc1ccc(C)c(N2CCN(C(=O)c3ccc4c(=O)n5c(nc4c3)CCCCC5)CC2)c1 | inconclusive: -35.6% |
| CCOC(=O)C1(Cc2ccccc2C(F)(F)F)CCN(CC2CC2)CC1 | inconclusive: -38.1% |
| Cc1ccc2cc(C=O)c(Cl)nc2c1 | inactive: 2.32% |
| O=C(Nc1ccc(Cl)c(C(F)(F)F)c1)NC1CC2CCCC(C1)N2C1CC1 (stereo unspecified) | inconclusive: -32.9% |
| Cc1cc(N2CCN(c3nc(-c4ccccc4)cs3)CC2)c2ccccc2n1 | inconclusive: -49.3% |
| CN(C)c1ccc(C(=S)N2CCN(c3ccccc3)CC2)cc1 | inconclusive: -49.4% |
| O=S(=O)(NCCN1CCOCC1)c1cccc(C(F)(F)F)c1 | inactive: 24.9% |
| NC(=O)CC(NC(=O)Cc1cccc2ccccc12)c1ccc(N2CCc3ccccc3C2)c([N+](=O)[O-])c1 (stereo unspecified) | inconclusive: -47.6% |
| CCC(CO)Oc1cc(NC(=O)c2ccc(C)cc2)c2ncn(C(C)C)c2c1 (stereo unspecified) | inconclusive: -34.7% |
| Cc1c(CN2CCC(CO)(CC3CCCCO3)CC2)cnn1C (stereo unspecified) | inactive: 14.5% |

| Structure (SMILES) | activity change |
| --- | --- |
| O=C(NC(c1ccc(-c2ccccc2)cc1)c1cnccn1)C1CCN(Cc2ccc(Oc3ccccc3)cc2)CC1 (stereo unspecified) | active: -52.2% |
| CC(C)NC(=O)c1c(O)c2ccccc2[nH]c1=O | inconclusive: -40.4% |
| C[C@H](CO)N1C[C@H](C)[C@H](CN(C)C(=O)Cc2cccnc2)Oc2ncc(Br)cc2C1=O | inactive: 42.6% |
| CC[C@@H]1C(c2cccc(Cl)c2)=NN(c2ccc(Br)cc2)[C@H]1C(=O)N1CCOC1=O | active: -66.1% |
| Fc1ccc(CN2CC[C@H]3C=CCc4cccc(c43)C2)cc1 | inactive: 24.3% |
| CC(C)N(C(=S)Nc1cc(S(=O)(=O)N2CCOCC2)ccc1Cl)c1ccccc1 | inactive: 8.08% |
| O=C1CSC(=S)N1Cc1cccnc1 | active: -83.7% |
| Cc1ccc(-c2cc(C(F)F)nc(N3CCOCC3)n2)cc1 | inconclusive: -48.4% |
| Cc1ccc(C(=O)Nc2ccc(C(=O)N3CCCCC3)cc2)o1 | inconclusive: -36.2% |
| CC(=O)N1CCCc2cc(S(=O)(=O)N(C)CC(=O)Nc3ccccc3)ccc21 | inactive: 29.5% |
| COC(=O)c1cc(NC(=O)Cc2ccccc2[N+](=O)[O-])ccc1Cl | inactive: 11.8% |
| CCOc1ccc(OCCN2C(=O)NC3(CCCc4ccccc43)C2=O)cc1 (stereo unspecified) | inconclusive: -48% |
| CCc1nc(NCc2ccccn2)c2oc3ccccc3c2n1 | active: -68% |
| CCOc1cc(S(=O)(=O)NCc2ccncc2)c(C)cc1C | inactive: 34.9% |
| CN1C(=O)CSc2ccc(NC(=O)NCc3ccco3)cc21 | inconclusive: -30.6% |
| N/C(=N\OC(=O)CCC1CCCCC1)c1ccc([N+](=O)[O-])cc1 | inconclusive: -30.2% |
| Cc1nc2nc(SCC(=O)NCCCN3CCCC(C)C3)nn2c(C)c1Cc1ccccc1Cl (stereo unspecified) | inconclusive: -36.2% |
| COc1ccc(CN2CCN(c3ncnc4scc(-c5ccc(F)cc5)c34)CC2)cc1 | inconclusive: -31.6% |
| COc1ccccc1CNC(=O)CN1C(=O)NC(Cc2ccccc2)(c2ccccc2)C1=O (stereo unspecified) | inconclusive: -37.3% |
| Cc1c(CN2CCC(CO)(Cc3ccccc3)CC2)c2ccccc2n1C | inconclusive: -34.2% |
| Nc1nc(SCc2ccccc2)c2ncn(C3OC(CO)C(O)C3O)c2n1 (stereo unspecified) | inactive: -26.5% |
| O=C(c1ccco1)N1CCCC(c2nc(-c3ccc(S(=O)(=O)NCc4ccccc4)cc3)no2)C1 (stereo unspecified) | inconclusive: -32.2% |

| Structure (SMILES) | activity change |
| --- | --- |
| CC1CCN(CCOCCOc2ccc(Cl)cc2Br)CC1 | inconclusive: -33.4% |
| CCOC(=O)C1(CCOc2ccccc2)CCN(Cc2ccc(NC(C)=O)cc2)CC1 | inconclusive: -35.4% |
| N#Cc1c(Nc2ccccc2)s[nH]c1=O | inconclusive: -38.8% |
| COc1ccc(Cl)cc1NC(=O)c1ccc2c(SCC(=O)O)c3c(nc2c1)CCCC3 | inconclusive: -37.3% |
| Cc1oc2ccc(O)cc2c1C(=O)c1ccc([N+](=O)[O-])cc1 | inconclusive: -46.4% |
| COc1cc2c(cc1OC)CN(c1nc(CN3CCOCC3)nc3sc4c(c13)CCC(C)C4)CC2 (stereo unspecified) | active: -67.7% |
| Cc1ccc(CC(=O)Nc2nccs2)cc1C | inactive: -1.06% |
| COc1cc(/C=C2\SC(=S)N(C(C(=O)O)c3ccccc3)C2=O)cc(OC)c1OC (stereo unspecified) | inactive: -5.18% |
| CC(C)OCCCn1c(=O)c2ccccc2n2c(CCC(=O)NC3CCN(Cc4ccccc4)CC3)nnc12 | active: -51.3% |
| O=C(/C=C/c1ccc(O)cc1)c1ccccc1 | inconclusive: -43.8% |
| O=c1[nH][nH]c2c1[C@H](c1ccc(F)cc1)O[C@H](CCc1ccccc1)C2 | inactive: -3.81% |
| NSc1nc(N)c2nc(-c3ccccc3)c(-c3ccccc3)nc2n1 | active: -51.5% |
| O=C(Nc1ccc(OCC(=O)N2CCN(S(=O)(=O)c3ccccc3)CC2)cc1)c1ccco1 | inconclusive: -45.5% |
| Cc1cccc(NC(=O)Cc2noc3ccccc23)c1 | inconclusive: -30.2% |
| Cc1nn(-c2ccc(F)cc2)c(Cl)c1C(=O)N(C)CC(=O)Nc1cccc(F)c1 | active: -52.2% |
| COc1ccc(-n2c(SCc3cn4c(C)cccc4n3)nc3ccccc3c2=O)cc1OC | inconclusive: -42.9% |
| CCc1nc2ccc(C(=O)Nc3cc(-c4ccccc4)ccc3OC)cn2c1N(C)Cc1ccc(OC)cc1 | inconclusive: -35.2% |
| O=C(COC(=O)CNS(=O)(=O)c1c(Cl)cccc1Cl)Nc1ccccc1Sc1ccccc1 | inactive: 8.54% |
| COc1ccc(/C=C(\C#N)C(=O)NCC(c2ccc(F)cc2)N2CCOCC2)cc1 (stereo unspecified) | inactive: 0% |
| CC1(C)Cc2cccc(OCC(=O)N3CCN(c4ccc([N+](=O)[O-])cc4)CC3)c2O1 | inconclusive: -42.2% |
